Consider 78 sequences from the supplement of paper PMC10126150.

This data set has as its system ATP. The data set is described as follows: switch fluorescence ratio, 500 uM ATP over buffer (Cy3 cluster intensity, sum of 5 cycles each) (fold (ratio)); higher = stronger signal-on switching upon ATP binding; sequences stand for … in TCGTCGGCAGCGTCAGATGTGTATAAGAGACAGTTTTTTTTTTTTTTTTTTTTTTTTT…TC. Conditions: aptamer strand: ATP DNA aptamer (quencher-CACCTGGGGGAGTATTGCGGAGGAAGG + anchor), 100 nM annealed; ATP concentration: 500 uM; one replicate. In a few lines:
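Per cluster, summed Cy3 intensity from the target cycles was divided by that from the buffer cycles to give the fluorescence ratio, then averaged per switch-domain sequence. Clusters outside 100-1000 RFU were excluded. The Cy3-labelled switching-strand clusters, on a modified Illumina MiSeq flow-cell, were annealed to 100 nM quencher-labelled ATP aptamer and imaged in selection buffer, then after 15 min with 500 uM ATP at 22 °C, for five cycles with NaOH stripping and re-annealing between them.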

Sequences with one replicate were seen in a single cluster, so their values are uncertain.
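Further: ATP exposure 15 min at 22 °C before imaging.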

Regarding AAGATTTCAG, the switch fluorescence ratio amounted to 1.03.
With GGAATAGCTT the figure was 0.983.
As to TGAACGGTCT, the switch fluorescence ratio worked out at 1.06.
With GTAACGTAGC the figure was 1.08.
As to TCAGACCAC, the switch fluorescence ratio came out at 1.03.
On to CATTTGAAG, for which the switch fluorescence ratio was determined as 0.965.
Next, ACGAACATAT: 1.27.
Regarding CCCGAGGGCC, the switch fluorescence ratio turned out to be 0.985.
With CCTAGTGGGC the figure was 1.08; with CTATACAACA, 0.994.
With CTCTTACGGA the figure was 1.01.
CATGGCCTGC: the switch fluorescence ratio came to 0.994.
Next, ATCCCTCGGG: 1.1; TTAGGATTAG: 0.987; GCTATAAC: 3.44.
In the case of TATACCACTC, the switch fluorescence ratio was 1.06.
Next, GGGCACATCG: 1.12; ATGATACCA: 0.936; GTACTAGGGG: 1.04.
Consider GTTCCGTCGG, for which the switch fluorescence ratio worked out at 1.02.
As to AACAAAGAGT, the switch fluorescence ratio was found to be 1.02.
Next, AATTTTTACC: 1.07.
In the case of ATCTGCCGCG, the switch fluorescence ratio was 1.05.
As to TTCCGCAGCG, the switch fluorescence ratio worked out at 2.79.
Next, GGATTCAGGA: 1.09; TAACGTTATA: 1.05; TCCCTACACC: 1.09.
For the sequence AGACGGACCC, the switch fluorescence ratio was found to be 1.39.
Next, GGATTGAACA: 1.03; CGCAAAGGCG: 1.06; TGGAACATTA: 1.07.
With CCACAATTAA the figure was 1.43; with TCTCAATACC, 1.8.
On to GGTGCGGGTA, for which the switch fluorescence ratio turned out to be 0.997.
With ATATAGTGGA the figure was 0.984; with TAATCCTCAA, 1.13.
With ACGTGACTCT the figure was 1.06.
With CCATCCAGGT the figure was 3.32; with ATTGACCTGA, 1.07.
With GGCAATCAAT, the switch fluorescence ratio turned out to be 1.02.
With ATGTAACATT the figure was 0.98; with TAGAGAGGTT, 1.01; with GTTCAAAAAA, 1.
Turning to AGAGTTTATT, the switch fluorescence ratio was 0.981.
With AGCTACAGCA the figure was 0.955.
With ATGTCGGCGT the figure was 1.05.
Next, ATGTATCGAG: 1.04.
Turning to ACCGAGTATC, the switch fluorescence ratio came to 1.04.
As to TCTTCATCTA, the switch fluorescence ratio was 1.02.
With TAAAAAGATA the figure was 1.28; with GGTGACTGAA, 0.998.
In the case of AGACCGGAAA, the switch fluorescence ratio stood at 1.04.
With AGCGCGTAAA the figure was 1.05.
Take GTCAGGGGTA: the switch fluorescence ratio was 0.971.
As to CATTTCATTC, the switch fluorescence ratio came out at 0.995.
In the case of TGACTTATTG, the switch fluorescence ratio turned out to be 1.04.
Next, ATCGCTGATC: 1.1; GCGTGCTGTG: 1.01.
For ATTCAAATCC, the switch fluorescence ratio came out at 1.06.
With CTTGGCTATA the figure was 1.19; with ATATTTTGCT, 0.975; with CCCCAAAGGG, 1.06.
For the sequence CAAAGAACCG, the switch fluorescence ratio worked out at 1.16.
With TACATTTCCG the figure was 1.03; with GCGTCGCCGG, 1.
With CTGGTCCTTT the figure was 0.991; with TTTTTCTGTG, 0.995; with AGGTGCCCGG, 0.997.
Next, GGGTAACAGC: 0.962.
For the sequence TCGAAGACCA, the switch fluorescence ratio was 1.03.
With GGCCTTGAAC the figure was 1.01; with GATAGGGAGA, 1.03; with ACCCTTGGT, 1.16.
GCGAGGCAGG: the switch fluorescence ratio came out at 1.01.
Next, GATAGTACAG: 1.07.
On to GTGCATCGGT, for which the switch fluorescence ratio was 0.995.
With AAAGTAATTC the figure was 1.05.
With CGCCCAATCG the figure was 1.45.
